Measurements published in PubChem BioAssay AID588795 (National Center for Advancing Translational Sciences (NCATS), 2011).
Out of some 390,000 compounds screened, about 1,400 (0.36%) were called active. Inconclusive results, whose numbers are uncertain, are shown with a selection of clear calls. The call rests on the fitted dose curve; in most records, active means well fitted inhibition curve with a large enough effect; inconclusive means small, poorly fitted or top-dose-only effect; inactive means no such curve, though single readings can be large or run the other way. Potencies beside an inconclusive call are fits to weak or partial responses and may not hold up.

molecular target: Flap endonuclease 1 (Homo sapiens) (UniProt P39748); experiment: qHTS Assay for the Inhibitors of Human Flap endonuclease 1 (FEN1).; further: nearly all actives have a fitted effect of over 65% in size; conditions: Recombinant FEN1 flap cleavage, fluorescence, 15 min; series mostly up to 114 µM
How it was run: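 FEN1 at 10 nM, compound pretreatment for 15 min (room temperature), 50 nM final substrate to initiate; endpoint reads at 0 and 15 min; DMSO-only plates used as vehicle background.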
Potency means the concentration at half of the fitted maximal effect; tags describe the fitted curve by direction and shape.

UniProt P39748, sequence (P39748 whole entry, looked up): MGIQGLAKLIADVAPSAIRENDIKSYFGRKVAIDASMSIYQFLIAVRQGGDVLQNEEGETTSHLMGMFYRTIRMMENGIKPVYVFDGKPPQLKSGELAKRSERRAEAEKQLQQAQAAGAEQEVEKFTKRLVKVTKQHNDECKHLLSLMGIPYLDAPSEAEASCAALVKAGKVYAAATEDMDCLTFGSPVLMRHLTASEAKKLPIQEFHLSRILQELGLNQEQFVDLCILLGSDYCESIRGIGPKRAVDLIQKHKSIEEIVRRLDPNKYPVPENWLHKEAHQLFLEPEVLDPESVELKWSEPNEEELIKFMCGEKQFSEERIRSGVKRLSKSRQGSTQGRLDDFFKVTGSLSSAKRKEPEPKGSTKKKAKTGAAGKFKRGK

Row | Structure (SMILES) | Potency
1 | COCCCn1c(SCc2nnc(-c3ccc(OC)c(OC)c3)o2)nc2ccccc2c1=O | inconclusive: 44.7 µM [inhibitor, partial curve]
2 | CO[C@H]1/C=C/O[C@@]2(C)Oc3c(C)c(O)c4c(O)c(c5c(c4c3C2=O)NC2(CCN(CC(C)C)CC2)N=5)=NC(=O)/C(C)=C\C=C\[C@H](C)[C@H](O)[C@@H](C)[C@@H](O)[C@@H](C)[C@H](OC(C)=O)[C@@H]1C | inconclusive: 39.8 µM [inhibitor, partial curve, poor fit]
3 | CC(C)(C)c1ccc(OCCn2c(CCNC(=O)C3CCCCC3)nc3ccccc32)cc1 | inconclusive: 25.1 µM [inhibitor, partial curve, poor fit]
4 | CC1=NC(Nc2nc(C)c3ccccc3n2)=NC(C)(C)C1 | active: 39.8 µM
5 | CCOC(=O)c1sc(=NC(=O)c2cc(OC)c(OC)c(OC)c2)n(C)c1C | inconclusive: 0.708 µM [inhibitor, full curve]
6 | Nc1cc(=O)[nH]c(SCC(=O)Nc2cc(S(=O)(=O)N3CCOCC3)ccc2Cl)n1 | inactive
7 | NS(=O)(=O)c1ccc(CCNC(=O)c2ccc(NC3=NC4CS(=O)(=O)CC4S3)cc2)cc1 (configuration not stated) | inactive
8 | CS(=O)(=O)c1ccc2c(c1)SC1=NC(=O)/C(=C/c3ccco3)C(=N)N12 | inconclusive: 50.1 µM [inhibitor, partial curve]
9 | COc1ccc(NCC(=O)N/N=C2\CCc3ccccc32)cc1 | inconclusive: 89.1 µM [inhibitor, single point]
10 | COc1cc2c(cc1OC)-c1cc(Nc3ccc(N(C)C)cc3)nc(=O)n1CC2 | inconclusive: 50.1 µM [inhibitor, partial curve, poor fit]
11 | Cc1ccc(NC(=O)[C@@]2(CC(=O)O)CC(/C=C/c3ccccc3)=NO2)c(C)c1 | inactive
12 | CCCCC1(C)OC(=O)C(=Cc2ccc(SC)cc2)C(=O)O1 (configuration not stated) | inactive
13 | COc1ccc(N(CC(=O)N/N=C/c2cccc(OC)c2OC)S(=O)(=O)c2ccccc2)cc1 | inactive
14 | Cc1cc(-c2ccc(/C=N/n3cnnc3)o2)c(C)c([N+](=O)[O-])c1 | inconclusive: 56.2 µM [inhibitor, partial curve, poor fit]
15 | COc1ccc2c(CNCCc3ccccc3)c(C(=O)O)n(Cc3cccc(F)c3)c2c1 | inactive
16 | Nc1cc(S(=O)(=O)O)cc([N+](=O)[O-])c1O | inconclusive: 39.8 µM [inhibitor, partial curve]
17 | CCN(CC(=O)Nc1ccccc1C(F)(F)F)C(=O)CCc1nc2sc3c(c2c(=O)[nH]1)CCCC3 | inactive
